Data from PubChem BioAssay AID1347073 (National Center for Advancing Translational Sciences (NCATS), 2019).
Hit rate of the full screen: of about 45,000 compounds, about 200 (0.44%) were called active. Roughly 7% stayed inconclusive and do not appear here. The call rests on the fitted dose curve; in most records, active means well fitted activation curve with a large enough effect; inconclusive means small, poorly fitted or top-dose-only effect; inactive means no such curve, though single readings can be large or run the other way. This is one part of the list.

Assay: qHTS of TDP-43 Inhibitors: NCGC Sytravon Library Screen; further: 0% is about no effect; nearly all actives have a fitted effect of over 55% in size
Conditions: yeast TDP-43 toxicity rescue, BacTiter-Glo growth, 24 h; series mostly up to 46.1 µM; growth rescue (activation): at the top concentration
Text: The goal of this project is to identify new chemical probes capable of reversing the toxicity associated with TDP-43 which is associated with frontotemporal lobar degeneration and amyotrophic lateral sclerosis. These compounds will provide a complementary approach to deciphering the tangled mechanisms of toxicity and protection that we have uncovered through genome-wide genetic screens and are beginning to uncover in a large-scale proteomics analysis with mass spectroscopy. To this end, a miniaturized assay was developed to be screened against the Molecular Libraries Small Molecule Repository (MLSMR) to discover TDP-43 inhibitors. Please note that in the set-up this yeast-based assay compounds that inhibit as TDP-43, have a read-out as activators. NIH Chemical Genomics Center [NCGC] NIH Molecular Libraries Probe Centers Network [MLPCN] Assay Submitter (PI): Susan Lindquist, Whitehead Institute/MIT MLPCN Grant: R21 NS060957
Dispense 2.5 microL yeast galactose medium per 1536-well plate, pin compound, dispense 2.5 microL TDP-43 expressing yeast in galactose medium at OD600=0.02 (pregrown in raffinose medium to mid-log phase) per well, incubate for 24 hr at 30 deg C, and cell growth will be measured using 5 microL of Bactiter/Glo reagent to entire plate and read using Luminescence Protocol in ViewLux.

SMILES | growth rescue (activation)
COc1ccc(CCNC(=O)c2cc(=O)c3ccc(C)cc3o2)cc1OC | inactive: 10.6%
Cc1ccc(C(=O)N2CCN(S(=O)(=O)c3ccc(C)cc3)CC2)cc1 | inactive: 9.44%
COc1ccc(C(=O)Nc2ccc3oc(-c4cccnc4)nc3c2)cc1OC | inactive: 5.86%
CC(OC(=O)c1cccc(S(=O)(=O)Nc2ccccc2F)c1)C(=O)NCc1ccc2c(c1)OCO2 (configuration not stated) | inactive: -5.25%
CCCCN(CC)C(=O)Cc1ccc(Br)cc1 | inactive: 28%
Cc1ccccc1NC(=O)c1ccccc1NC(=O)c1cccs1 | inactive: 9.55%
CN(c1ccccc1)c1ccc(/C=C/[N+](=O)[O-])cc1 | inactive: -92%
COc1cc(C(=O)OCCNC(=O)c2cccnc2)cc(OC)c1OC | inactive: 14%
CC(C)(C)CN1CCNC(=O)C1CC(=O)NCc1cccc(-n2cccn2)c1 (configuration not stated) | inactive: 2.33%
Cc1[nH]c(=O)[nH]c(=O)c1S(=O)(=O)N1CCCC(C(=O)N2CCN(c3cccc(C(F)(F)F)c3)CC2)C1 (configuration not stated) | inactive: 13.2%
CCOc1ccc(NC(=O)Cc2ccccc2)cc1 | inactive: 10.8%
O=C(/C=C/c1ccccc1Cl)NCCc1ccc(F)cc1 | inactive: 1.56%
Cc1occc1C(=O)NNC(=O)c1nn(C)c(=O)c2ccccc12 | inactive: -4.3%
Cc1cc(Br)cc2c1N(Cc1ccccc1OC(C)C)C(=O)C2=O | inactive: -92.3%
COc1ccc2oc(=O)c(C(=O)N3CCN(C(=O)c4ccccc4)CC3)cc2c1 | inactive: 8.09%
O=C(CC(=O)Nc1ccccc1F)Nc1ccccc1F | inactive: 16.8%
COc1cc(C2C3=C(CC(C)(C)CC3=O)N(C)C3=C2C(=O)CC(C)(C)C3)ccc1O | inactive: 10.2%
COc1ccc(CC(=O)Oc2cc(C)ccc2C)cc1 | inactive: 19.6%
O=C(CN1C(=O)c2ccccc2C1=O)OCC(=O)N1CCCCC1 | inactive: -3.43%
COc1cccc(C(=O)NCCCN2CCN(CCCNC(=O)c3cccc(OC)c3)CC2)c1 | inactive: 0.0888%
CC(C)C(CCNCc1ccccn1)c1ccc(Cl)cc1 (configuration not stated) | inactive: -12%
O=[N+]([O-])c1ccc(NC(=S)NCc2ccncc2)cc1 | inactive: -2.59%
CC(C)(C)C(=O)Nc1ccccc1C(=O)Nc1cccnc1 | inactive: -21.8%

SMILES | growth rescue (activation)
O=C(NCc1ccccn1)C1CCN(Cc2cccc(OCc3ccccc3)c2)CC1 | inactive: 3.28%
CC(=O)Oc1ccc2c(=O)c(N3C(=O)c4ccccc4C3=O)c(C)oc2c1 | inactive: -12.4%
O=C(COC(=O)COc1ccc(Br)cc1)NCc1ccc2c(c1)OCO2 | inactive: -9.66%
O=C(COC(=O)Cn1cnc2ccccc2c1=O)Nc1cc(Cl)ccc1[N+](=O)[O-] | inactive: 14.4%
CCOc1ccc(Br)cc1S(=O)(=O)Nc1ccc(C(=O)OC(C)C(=O)N(C)c2ccccc2)cc1 (configuration not stated) | inactive: 16.3%
NC(=O)C1CCN(C2=C(NS(=O)(=O)c3ccccc3)C(=O)c3ccccc3C2=O)CC1 | inactive: -8.06%
CNC(=O)C(=O)N/N=C/c1ccccn1 | inactive: -0.0062%
Cc1nnc(NC(=O)C2CC(=O)N(c3ccccc3)C2)s1 (configuration not stated) | inactive: -2.53%
COc1ccc(C(CNc2ccc(S(C)(=O)=O)cc2[N+](=O)[O-])N(C)C)cc1OC (configuration not stated) | inactive: -19.7%
CCn1c(SCC(=O)Nc2nccs2)nnc1-c1cc2cccc(OC)c2o1 | inactive: 11.1%
Cn1c(CN2CCCC(C(=O)c3ccc4c(c3)OCO4)C2)nc2ccccc21 (configuration not stated) | inactive: 9.54%
CC(=O)Nc1ccc(NC(=O)C2CCCN2C(=O)Nc2ccccc2[N+](=O)[O-])cc1 (configuration not stated) | inactive: 12.3%
CC(Oc1ccccc1)C(=O)NNC(=O)c1cccs1 (configuration not stated) | inactive: 8.99%
COC(=O)C1=C(C(=O)OC)C(c2cc(Br)ccc2O)c2sc(=O)[nH]c2S1 (configuration not stated) | inactive: 17.2%
CC(C)(C)NC(=O)NC(=O)CN1c2cccc3cccc(c23)S1(=O)=O | inactive: 11.4%
O=S1(=O)CCN2C(Cc3ccc(SC(F)F)cc3)=CSC2=N1 | inactive: 4.61%
CCOc1ccc(N2C(=O)CN(CC(=O)OC)C2=S)cc1 | inactive: 0.872%
COC(=O)/C=C1/SC(=NC(=O)c2ccc(Cl)cc2)NC1=O | inactive: 27.7%
O=C(NNc1c2ccccc2nc2ccccc12)c1ccc(Cl)cc1 | inactive: 0.0729%
CCOc1ccc(S(=O)(=O)NCc2ccccn2)cc1NC(=O)c1ccccc1F | inactive: 8.66%
CC(=O)c1cccc(NC(=O)C2CCN(C(=O)c3ccccc3Cl)CC2)c1 | inactive: -32.9%
O=C(O)CC1=C(c2ccc(F)cc2)CCC1=O | inactive: 5.06%
C/C(N)=C(/C#N)C(=O)COC(=O)c1cc(-c2cccc(Br)c2)nc2ccccc12 | inactive: -0.539%

SMILES | growth rescue (activation)
Cc1cnc(C(=O)N2CCCC(C(=O)c3ccc(C(F)(F)F)cc3)C2)cn1 (configuration not stated) | inactive: -0.0568%
CC(NC(=O)C12CC3CC(CC(C3)C1)C2)c1ccc(F)cc1 (configuration not stated) | inactive: -32.2%
COc1cccc(/C=C2\Oc3cc(OC(=O)N4CCOCC4)ccc3C2=O)c1 | inactive: 7.1%
O=C(CCCCCn1c(=O)[nH]c2ccsc2c1=O)NCc1ccc(F)cc1 | inactive: -9.68%
CC(=O)Nc1ccc(S(=O)(=O)N2CCC(N3CCCCC3)CC2)cc1 | inactive: 1.25%
CC(C)OC(=O)NCCOC(=O)Nc1ccc(Cl)cc1 | inactive: 4.86%
CN(C)S(=O)(=O)c1ccc(Cl)c(C(=O)Nc2ccc(S(=O)(=O)N3CCOCC3)cc2)c1 | inactive: 10.1%
OCCN1CCN(c2cnc(-c3ccsc3)cn2)CC1 | inactive: 7.94%
CSc1nc(C(C)C)ccc1CNC(=O)CC(C)c1ccccc1 (configuration not stated) | inactive: -3.68%
Cc1cc(NC(=O)c2ccc(Br)o2)ccc1NC(=O)c1ccco1 | inactive: -36%
COCCN(C(=O)C(=O)NC1CCCC1)C(C(=O)NC1CCCC1)c1ccccc1F (configuration not stated) | inactive: 6.19%
CC(C)N(C(=O)CSc1nn2c(=O)c(C(C)(C)C)nnc2s1)c1ccccc1 | inactive: 17.1%
Nc1c2c(nc3ccn(Cc4ccccc4)c(=O)c13)CCC2 | inactive: 26.8%
CCOC(=O)C(NC(C)=O)(OCc1ccccc1)C(F)(F)F (configuration not stated) | inactive: 18.6%
CC(=O)c1ccc(Nc2nc(C(N)Cc3ccc(Cl)cc3)cs2)cc1 (configuration not stated) | inactive: -1.18%
CCn1cc(CNC(=O)c2ccc(OC3CCN(Cc4ccccn4)CC3)cc2)cn1 | inactive: -20.7%
Cc1cc(C)nc(SCc2ccc(C(=O)NNC(=O)Nc3cccc(Cl)c3)cc2)n1 | inactive: -14.8%
N#Cc1nc(-c2ccc(OCc3ccc(Cl)cc3)cc2)oc1NCCCn1ccnc1 | inactive: -17%
O=C(COC(=O)C1=NN(c2ccccc2)C(=O)CC1)Nc1nc(-c2ccc(F)cc2)cs1 | inactive: -9.07%
O=C(NCCN1CCNC1=O)c1ccc2sc([C@@H]3O[C@H](CO)[C@H](O)[C@H](O)[C@H]3O)nc2c1 | inactive: 0.88%
CCN(c1ccccc1)S(=O)(=O)c1cc(C(=O)Nc2cccc(Cl)c2)ccc1F | inactive: 18.1%
